Source: the supplement of paper PMC12217912
The list shows a part of the results. The full chains were built here from the parent and the listed change. Values near 0.05 are background.

B1: TEV protease; numbered along this chain (parent)
chain: MGESLFKGPRDYNPISSSICHLTNESDGHTTSLYGIGFGPFIITNKHLFRRNNGTLVVQSLHGVFKVKDTTTLQQHLVDGRDMIIIRMPKDFPPFPQKLKFREPQREERICLVTTNFQTKSMSSMVSDTSCTFPSGDGIFWKHWIQTKDGQCGSPLVSTRDGFIVGIHSASNFTNTNNYFTSVPKNFMELLTNQEAQQWVSGWRLNADSVLWGGHKVFMVKPEEPFQPVKEATQL

Variants of: B1
Test: raw area under fraction-flipped curve 0-4 h after induction (AUC4h, not background-subtracted), DNA-recorder readout of cleavage of the substrate (dimensionless); higher = more cleavage of the substrate by the protease variant
Settings: temperature: 34 °C; time window: 0-4 h after rhamnose induction
Procedure: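 In vivo DNA recorder in E. coli TOP10(DE3) ΔrhaA at 34 °C. Each TEVp single-site mutant (parent TEVp 0) is paired with a single-site variant of the 7-mer TEVs (canonical ENLYFQ|S). The substrate sits between flexible linkers in a Bxb1-sfGFP-TEVs-SsrA fusion, so cleavage stabilises Bxb1 and speeds flipping of a recombination array, read by NGS. The value is the raw area under the fraction-flipped curve over 0-4 h after rhamnose induction (AUC4h), with ≥20 reads per time point. It is not background-subtracted; inactive controls average about 0.047.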
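Further: Bxb1 expression induced with 0.2% (w/v) L-rhamnose at OD600 near 0.5, cultures sampled hourly, flipped fraction per protease–substrate barcode pair counted by paired-end Illumina sequencing.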

| Variant | area with substrate ENLYFAS | area with substrate ENLYFCS | area with substrate ENLYFDS | area with substrate ENLYFES | area with substrate ENLYFFS | area with substrate ENLYFHS | area with substrate ENLYFIS | area with substrate ENLYFKS | area with substrate ENLYFLS | area with substrate ENLYFMS | area with substrate ENLYFPS | area with substrate ENLYFRS | area with substrate ENLYFSS | area with substrate ENLYFVS | area with substrate ENLYFWS | area with substrate ENLYFYS | area with substrate ENLYFGS | area with substrate ENLYFNS | area with substrate ENLYFTS |
| --- | --- | --- | --- | --- | --- | --- | --- | --- | --- | --- | --- | --- | --- | --- | --- | --- | --- | --- | --- |
| MGESLFKGPRDYNPISSSICHLTNESDGHTTSLYGIGFGPFIITNKHLFRRNNGTLVVQSLHGVFKVKDTTTLQQHLVDGRDMIIIRMPKDFPPFPQKLKFREPQREERNCLVTTNFQTKSMSSMVSDTSCTFPSGDGIFWKHWIQTKDGQCGSPLVSTRDGFIVGIHSASNFTNTNNYFTSVPKNFMELLTNQEAQQWVSGWRLNADSVLWGGHKVFMVKPEEPFQPVKEATQL [I110N] | 0.0581 | 0.0589 | 0.0443 | 0.0639 | 0.0464 | 0.0638 | 0.051 | 0.0505 | 0.0593 | 0.0566 | 0.0497 | 0.0622 | 0.0842 | 0.0552 | 0.0585 | 0.0523 |  |  |  |
| MGESLFKGPRDYNPISSSICHLTNESDGHTTSLYGIGFGPFIITNKHLFRRNNGTLVVQSLHGVFKVKDTTTLQQHLVDGRDMIIIRMPKDFPPFPQKLKFREPQREERIDLVTTNFQTKSMSSMVSDTSCTFPSGDGIFWKHWIQTKDGQCGSPLVSTRDGFIVGIHSASNFTNTNNYFTSVPKNFMELLTNQEAQQWVSGWRLNADSVLWGGHKVFMVKPEEPFQPVKEATQL [C111D] | 0.0645 | 0.0368 |  | 0.0562 | 0.0628 | 0.058 | 0.0607 | 0.0484 | 0.0532 | 0.0577 | 0.0765 | 0.0557 | 0.0584 | 0.0721 | 0.0624 | 0.0569 | 0.0627 | 0.0521 | 0.0477 |
| MGESLFKGPRDYNPISSSICHLTNESDGHTTSLYGIGFGPFIITNKHLFRRNNGTLVVQSLHGVFKVKDTTTLQQHLVDGRDMIIIRMPKDFPPFPQKLKFREPQREERIHLVTTNFQTKSMSSMVSDTSCTFPSGDGIFWKHWIQTKDGQCGSPLVSTRDGFIVGIHSASNFTNTNNYFTSVPKNFMELLTNQEAQQWVSGWRLNADSVLWGGHKVFMVKPEEPFQPVKEATQL [C111H] | 0.0653 |  |  |  | 0.0641 | 0.0418 | 0.0552 | 0.0602 | 0.0603 | 0.0973 | 0.0607 | 0.0318 |  |  | 0.0594 |  |  | 0.0627 | 0.0609 |
| MGESLFKGPRDYNPISSSICHLTNESDGHTTSLYGIGFGPFIITNKHLFRRNNGTLVVQSLHGVFKVKDTTTLQQHLVDGRDMIIIRMPKDFPPFPQKLKFREPQREERICLMTTNFQTKSMSSMVSDTSCTFPSGDGIFWKHWIQTKDGQCGSPLVSTRDGFIVGIHSASNFTNTNNYFTSVPKNFMELLTNQEAQQWVSGWRLNADSVLWGGHKVFMVKPEEPFQPVKEATQL [V113M] | 0.0695 | 0.0631 | 0.0627 | 0.0574 | 0.0737 |  | 0.0488 |  | 0.0679 | 0.0688 |  | 0.0646 |  | 0.0347 |  | 0.0539 | 0.0588 | 0.0528 | 0.0604 |
| MGESLFKGPRDYNPISSSICHLTNESDGHTTSLYGIGFGPFIITNKHLFRRNNGTLVVQSLHGVFKVKDTTTLQQHLVDGRDMIIIRMPKDFPPFPQKLKFREPQREERICLVTTLFQTKSMSSMVSDTSCTFPSGDGIFWKHWIQTKDGQCGSPLVSTRDGFIVGIHSASNFTNTNNYFTSVPKNFMELLTNQEAQQWVSGWRLNADSVLWGGHKVFMVKPEEPFQPVKEATQL [N116L] | 0.0565 | 0.0647 | 0.0528 |  | 0.0605 | 0.0672 | 0.113 | 0.0841 |  | 0.0668 | 0.0678 | 0.0472 | 0.062 | 0.069 | 0.08 |  | 0.065 |  | 0.0553 |
| MGESLFKGPRDYNPISSSICHLTNESDGHTTSLYGIGFGPFIITNKHLFRRNNGTLVVQSLHGVFKVKDTTTLQQHLVDGRDMIIIRMPKDFPPFPQKLKFREPQREERICLVTTPFQTKSMSSMVSDTSCTFPSGDGIFWKHWIQTKDGQCGSPLVSTRDGFIVGIHSASNFTNTNNYFTSVPKNFMELLTNQEAQQWVSGWRLNADSVLWGGHKVFMVKPEEPFQPVKEATQL [N116P] | 0.0523 |  |  | 0.0787 | 0.0756 | 0.0837 | 0.0566 | 0.0364 |  | 0.0523 | 0.0452 | 0.0585 | 0.0585 |  | 0.0343 | 0.0612 | 0.0344 | 0.0655 | 0.043 |
| MGESLFKGPRDYNPISSSICHLTNESDGHTTSLYGIGFGPFIITNKHLFRRNNGTLVVQSLHGVFKVKDTTTLQQHLVDGRDMIIIRMPKDFPPFPQKLKFREPQREERICLVTTNEQTKSMSSMVSDTSCTFPSGDGIFWKHWIQTKDGQCGSPLVSTRDGFIVGIHSASNFTNTNNYFTSVPKNFMELLTNQEAQQWVSGWRLNADSVLWGGHKVFMVKPEEPFQPVKEATQL [F117E] | 0.0596 | 0.0568 |  | 0.0656 | 0.071 | 0.0663 | 0.0559 | 0.0647 |  |  | 0.0536 | 0.0584 | 0.0586 |  |  | 0.0583 |  | 0.0655 | 0.0559 |
| MGESLFKGPRDYNPISSSICHLTNESDGHTTSLYGIGFGPFIITNKHLFRRNNGTLVVQSLHGVFKVKDTTTLQQHLVDGRDMIIIRMPKDFPPFPQKLKFREPQREERICLVTTNFYTKSMSSMVSDTSCTFPSGDGIFWKHWIQTKDGQCGSPLVSTRDGFIVGIHSASNFTNTNNYFTSVPKNFMELLTNQEAQQWVSGWRLNADSVLWGGHKVFMVKPEEPFQPVKEATQL [Q118Y] | 0.0567 | 0.0592 |  |  | 0.0876 |  | 0.0645 |  |  | 0.0653 |  | 0.0767 |  | 0.0598 | 0.0565 |  | 0.057 |  | 0.0537 |
| MGESLFKGPRDYNPISSSICHLTNESDGHTTSLYGIGFGPFIITNKHLFRRNNGTLVVQSLHGVFKVKDTTTLQQHLVDGRDMIIIRMPKDFPPFPQKLKFREPQREERICLVTTNFQTKKMSSMVSDTSCTFPSGDGIFWKHWIQTKDGQCGSPLVSTRDGFIVGIHSASNFTNTNNYFTSVPKNFMELLTNQEAQQWVSGWRLNADSVLWGGHKVFMVKPEEPFQPVKEATQL [S121K] | 0.0615 |  | 0.0575 | 0.0749 | 0.0664 | 0.0648 | 0.0533 | 0.066 | 0.0646 | 0.0728 | 0.0474 | 0.057 | 0.0504 |  | 0.0538 | 0.0253 | 0.0814 | 0.0552 | 0.0483 |
